# Target: TMPRSS2 (Homo sapiens, UniProt O15393)
# Conditions: HeLa-ACE2 cells; 120 μM
# Chain of TMPRSS2 (O15393 whole entry): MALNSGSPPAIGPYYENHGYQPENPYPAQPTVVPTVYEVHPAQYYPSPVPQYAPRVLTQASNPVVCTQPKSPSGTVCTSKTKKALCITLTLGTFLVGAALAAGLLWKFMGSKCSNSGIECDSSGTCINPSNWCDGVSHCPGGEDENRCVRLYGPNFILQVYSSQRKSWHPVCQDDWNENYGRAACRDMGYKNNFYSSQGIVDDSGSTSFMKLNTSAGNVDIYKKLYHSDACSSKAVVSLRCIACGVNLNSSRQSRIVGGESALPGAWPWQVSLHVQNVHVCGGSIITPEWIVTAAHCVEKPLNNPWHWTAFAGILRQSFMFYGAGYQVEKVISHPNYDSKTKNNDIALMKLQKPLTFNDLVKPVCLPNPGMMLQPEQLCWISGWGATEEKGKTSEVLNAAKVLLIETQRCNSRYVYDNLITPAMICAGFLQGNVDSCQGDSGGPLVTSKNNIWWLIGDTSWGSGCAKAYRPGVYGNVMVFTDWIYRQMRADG
structure (smiles),measurement,value
CN(C)C(=O)COC(=O)Cc1ccc(OC(=O)c2ccc(NC(=N)N)cc2)cc1 [Camostat],Autocatalytic activation of TMPRSS2 at RQSR255,blocked

# Reference: patent publication US20230149401A1 (priority 2020, published 2023)
